According to PubChem BioAssay AID686979 (National Center for Advancing Translational Sciences (NCATS), 2013):
Hit rate of the full screen: of about 420,000 compounds, about 50,000 (12%) were called active. Inconclusive means that the source gave no clear call. Such entries were picked first, then a sample of the others. Calls follow the shape of the dose curve; as a rule, active = well fitted inhibition curve with a large enough effect; inconclusive = small, poorly fitted or top-dose-only effect; inactive = flat fitted curve, though single readings scatter. Potencies of inconclusive entries are left out as doubtful fits.

experiment: qHTS for Inhibitors of human tyrosyl-DNA phosphodiesterase 1 (TDP1): qHTS in cells in presence of CPT; conditions: chicken DT40 Tdp1-/-;hTDP1 cells + 20 nM CPT, ATP luminescence, 48 h; activity change, negative = growth inhibition: at 46.2 µM (top of the series); also: nearly all actives have a fitted effect of over 55% in size
How it was run: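 Cell growth measured by CellTiter-Glo luminescence after a minimum 48 h, 37 C compound exposure with 20 nM CPT in Tdp1-knockout DT40 cells stably expressing hTDP1, seeded 400/well; qHTS titration format.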
% is scaled to controls: 0 for no effect and ±100 for the full control effect; potency is read from the fitted curve at half-maximal effect; tags tell the direction and shape of the fitted curve.

SMILES	Potency	activity change, negative = growth inhibition
Cc1cc(=O)[nH]c2cc(N)ccc12	inactive	–
C=CCNc1nc(=S)[nH]c2cc(OC)c(OC)cc12	inactive	–
O=C(CN(c1cccc(C(F)(F)F)c1)S(=O)(=O)c1ccc(Cl)c([N+](=O)[O-])c1)NCc1ccc(F)cc1	active: 16.4 µM	–
Cn1c(C(=O)NCc2ccc(F)cc2)cc2cc(S(=O)(=O)N3CCCCC3)ccc21	active: 23.1 µM	–
CC1SCC(NC(=O)c2cccc(Cl)c2)CS1 (stereo not given)	active: 14.6 µM	–
COc1ccc(C2=NN(c3nc(C(=O)O)cs3)C(O)(C(F)(F)F)C2)c(OC)c1 (stereo not given)	inactive	–
Cc1cccc2cc3c(nc12)SC(=NCC1CCCO1)N(Cc1ccco1)C3 (stereo not given)	inconclusive [inhibitor, single point]	–
Fc1cccc(NCc2ccoc2)c1	inactive	–
O=C(O)/C=C/C(=O)Nc1ccc(Cl)cc1C(=O)c1ccccc1	inconclusive [inhibitor, single point]	–
Cc1cccc2nc(CSC(=N)N)c(Br)n12	inconclusive [inhibitor, single point]	–
O=C(COC(=O)CN1C(=O)C2CCCCC2C1=O)Nc1ccc(F)c(F)c1F (stereo not given)	inconclusive [inhibitor, single point]	–
COc1ccc(CC(N)c2csc(NC(=O)NC(c3ccccc3)c3ccccc3)n2)cc1 (stereo not given)	inconclusive [inhibitor, single point]	–
C/C(Cc1ccccc1)=N\NC(=O)CNC(=O)c1ccccc1Br	inactive	–
Cc1cc(C)n2nc(C(=O)Oc3ccc4c(c3)OCO4)nc2n1	–	inconclusive: -32.3% [inhibitor]
Cc1cccn2c(Nc3ccc4c(c3)OCCO4)c(-c3ccc(Br)o3)nc12	inconclusive [inhibitor, single point]	–
O=C(c1cccc(OC2CCN(Cc3cc(F)cc(F)c3)CC2)c1)N1CCCC1	inconclusive [inhibitor, partial curve, poor fit]	–
COc1ccc(-c2cc3ccc(O)c(CN4CCN(CCO)CC4)c3oc2=O)cc1OC	inconclusive [inhibitor, single point]	–
C[C@H](CO)N1C[C@H](C)[C@@H](CN(C)C(=O)Nc2ccc(C(F)(F)F)cc2)Oc2c(NC(=O)CCC(F)(F)F)cccc2C1=O	inconclusive [inhibitor, full curve]	–
O=C(CN1C(=O)CSc2ccc(C(F)(F)F)cc21)Nc1ccccc1	inconclusive [inhibitor, single point]	–
CNC(=O)c1ccsc1NC(=O)c1sc2ccccc2c1Cl	active: 13 µM	–
O=C(NCc1ccccc1Cl)c1cnc(N2CCCCC2)c2ccccc12	active: 18.4 µM	–
COc1ccc(C(C)NC(=O)Cc2ccc(Br)cc2)cc1 (stereo not given)	inconclusive [inhibitor, single point]	–
Cc1nnc2sc(SCC(=O)N3CCCCC3)nn2c1=O	inactive	–

SMILES	Potency	activity change, negative = growth inhibition
CC1CCC/C(=C\Nc2ccccc2C(=O)O)C1=O (stereo not given)	inconclusive [inhibitor, partial curve]	–
CCN(C(=O)Cn1c(SCC(=O)NCc2ccccc2)nc2ccccc21)c1cccc(C)c1	inconclusive [inhibitor, single point]	–
COc1cccc(-c2cccc(-c3nc(C(=O)Nc4ccc(-c5ccccc5)cc4)cc4c3[C@H](CCO)N(S(=O)C(C)(C)C)C4)c2)c1 (stereo not given in full)	inconclusive [inhibitor, single point]	–
Cc1cccc(C2c3[nH]c4ccccc4c3CCN2C(=O)c2cn(C)c3ccccc3c2=O)n1 (stereo not given)	inconclusive [inhibitor, single point]	–
NC(=O)CCN1CCCCC1	inactive	–
COc1ccccc1NC(=O)c1oc2ccccc2c1NC(=O)c1ccc(S(=O)(=O)N(C)C)cc1	inconclusive [inhibitor, partial curve]	–
COCCn1c(C)cc(C(=O)CSc2nc(C)c(C)c(C)n2)c1C	active: 29.1 µM	–
O=C(NC12CC3CC(CC(C3)C1)C2)N1CCC(n2nnc3ccccc32)CC1	inconclusive [inhibitor, single point]	–
COc1cc(-c2nc3n(n2)C(c2ccc(F)cc2)C(C(N)=O)=C(C)N3)cc(OC)c1OC (stereo not given)	inactive	–
COC(=O)N1CCN(S(=O)(=O)c2ccc(F)cc2)CC1	inconclusive [inhibitor, single point]	–
COc1ccc(OC)c(CNC(=O)c2cc(-c3ccc(Cl)s3)nc3ccccc23)c1	active: 14.6 µM	–
CC[C@]12c3[nH]c4cc(CCC(=O)N(C)C)ccc4c3CCN1C(=O)[C@@H](CC(=O)NCCC1=CCCCC1)C[C@@H]2C(=O)N1CCN(C(=O)c2ccco2)CC1	inactive	–
C=CCOC(=O)c1ccc(N2CCN(c3ccccc3)CC2)nc1	inactive	–
Cc1ccc(CNc2nc(N)c([N+](=O)[O-])c(Nc3ccc(F)cc3)n2)cc1	inconclusive [inhibitor, partial curve, poor fit]	–
O=C(O)CNc1nc(-c2ccccc2)c2cc([N+](=O)[O-])ccc2n1	inconclusive [inhibitor, partial curve]	–
CCOc1ccccc1N1CC(C(=O)N2CCc3ccccc3C2)CC1=O (stereo not given)	active: 16.4 µM	–
Cc1ccc(NC(=O)CSC2=C(C#N)C(c3ccc4c(c3)OCO4)CC(=O)N2)cc1C (stereo not given)	inconclusive [inhibitor, single point]	–
CSC1=C(C#N)C(c2ccc(C)cc2)C2=C(CCCC2=O)N1 (stereo not given)	inconclusive [inhibitor, single point]	–
O=C1NCCN(CC2CCN(CCc3ccc(Cl)c(Cl)c3)CC2)C1=O	inactive	–
O=C(NCCN1CCOCC1)c1cc(-c2ccccc2)on1	inconclusive [inhibitor, partial curve]	–
O=[N+]([O-])c1ccc(CN2CC(N3CCC(Cc4ccccc4)CC3)CS2(=O)=O)cc1 (stereo not given)	active: 16.4 µM	–
O=C1C(=O)N(CCN2CCOCC2)C(c2ccc(F)cc2)/C1=C(/O)c1ccc(S(=O)(=O)N2CCOCC2)cc1 (stereo not given)	inactive	–
